Screen size: about 230,000 compounds; about 1,500 (0.65%) were called active. Inconclusive means that the source gave no clear call. Such entries were picked first, then a sample of the others. Calls follow the shape of the dose curve; as a rule, active = well fitted inhibition curve with a large enough effect; inconclusive = small, poorly fitted or top-dose-only effect; inactive = no such curve, though single readings can be large or run the other way. A potency beside an inconclusive call is a rough fit, not a confirmed value.
What follows are compounds tested against Lethal(3)malignant brain tumor-like protein 1 (Homo sapiens) (UniProt Q9Y468) (assay: qHTS Assay for the Inhibitors of L3MBTL1). Settings: AlphaScreen L3MBTL1–H3K9me1 peptide binding; activity, negative = inhibition: at 57.1 µM (top of the series).
In short: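 AlphaScreen proximity signal between nickel-chelate acceptor and streptavidin donor beads (final 10 ug/mL) reports binding of 50 nM L3MBTL1 to 75 nM biotin-H3 K9me1 peptide; complex incubated with compounds 30 min at room temperature; cefsulodin titration as control.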
% is scaled to controls: 0 for no effect and ±100 for the full control effect; potency is read from the fitted curve at half-maximal effect; tags tell the direction and shape of the fitted curve.
Also: nearly all actives have a fitted effect of over 60% in size.

Chain of UniProt Q9Y468 (Q9Y468 whole entry, looked up): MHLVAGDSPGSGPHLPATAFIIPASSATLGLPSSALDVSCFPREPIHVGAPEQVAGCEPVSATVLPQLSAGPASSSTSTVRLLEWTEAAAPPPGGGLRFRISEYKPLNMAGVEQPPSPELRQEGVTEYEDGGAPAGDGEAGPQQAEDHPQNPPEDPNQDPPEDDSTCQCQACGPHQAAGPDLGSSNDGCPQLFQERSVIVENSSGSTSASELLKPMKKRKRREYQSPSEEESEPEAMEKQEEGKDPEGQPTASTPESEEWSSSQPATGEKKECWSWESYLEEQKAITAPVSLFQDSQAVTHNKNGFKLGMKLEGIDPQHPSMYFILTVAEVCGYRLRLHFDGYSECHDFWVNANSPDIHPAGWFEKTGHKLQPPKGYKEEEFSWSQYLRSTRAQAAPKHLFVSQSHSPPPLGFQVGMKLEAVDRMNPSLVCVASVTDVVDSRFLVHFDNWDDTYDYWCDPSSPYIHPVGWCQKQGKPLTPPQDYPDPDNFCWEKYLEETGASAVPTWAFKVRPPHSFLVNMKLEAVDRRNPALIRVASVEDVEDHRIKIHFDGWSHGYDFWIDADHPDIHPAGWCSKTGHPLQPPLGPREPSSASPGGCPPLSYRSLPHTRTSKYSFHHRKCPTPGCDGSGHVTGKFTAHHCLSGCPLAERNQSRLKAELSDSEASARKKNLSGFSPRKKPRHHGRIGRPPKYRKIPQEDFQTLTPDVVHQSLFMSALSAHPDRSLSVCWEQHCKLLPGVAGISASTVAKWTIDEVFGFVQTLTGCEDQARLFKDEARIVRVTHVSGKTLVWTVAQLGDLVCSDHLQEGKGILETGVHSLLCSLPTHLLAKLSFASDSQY

Question: `COc1cc(NC2c3ncccc3C(=O)N2Cc2ccco2)cc(OC)c1` (configuration not stated) was tested. Which Potency did it give?
Answer: Its Potency is inconclusive: 25.1 µM [inhibitor, single point].

Question: How did the Potency turn out when `O=C(c1cccc(S(=O)(=O)Nc2ccc(F)cc2)c1)N1CCC1` was run?
Answer: Its Potency is inconclusive: 5.01 µM [inhibitor, single point].

Question: With `CC(C)c1ccc(N=c2c([N+](=O)[O-])nn(-c3ccc4c(c3)OCCO4)n2O)cc1` as the compound, how does the Potency read?
Answer: The Potency was inconclusive: 39.8 µM [inhibitor, single point].

Question: For `O=C(NC1CC2CCC(C1)N2Cc1ccccc1)c1ccccc1Br` (configuration not stated), which Potency is on record?
Answer: Its Potency is inconclusive: 0.794 µM [inhibitor, single point].

Question: `COc1c(O)ccc(/C=N\NC(=O)c2ccc3c(c2)OCO3)c1[N+](=O)[O-]` was tested. Which activity, negative = inhibition did it give?
Answer: Its activity, negative = inhibition is inconclusive: -79% [inhibitor].

Question: For `O=C(N/N=C/c1ccco1)C1CC1c1ccccc1` (configuration not stated), which Potency is on record?
Answer: The Potency was inconclusive: 28.2 µM [inhibitor, single point].

Question: For `O=C(CN1CCCCCCC1)N/N=C/c1ccc([N+](=O)[O-])o1`, which activity, negative = inhibition is on record?
Answer: The activity, negative = inhibition was inconclusive: -49.6% [inhibitor].

Question: Which Potency does the source give for `O=C(Nc1ccc(F)cc1F)c1noc2c1CCC2` here?
Answer: The Potency was active: 31.6 µM.

Question: Which Potency does the source give for `COc1ccccc1-n1cnc2cc(NCc3ccccn3)ccc21` here?
Answer: Its Potency is inconclusive: 22.4 µM [inhibitor, single point].

Question: How did the Potency turn out when `CC(=O)Nc1ccc(S(=O)(=O)Nc2nc3ccccc3nc2Nc2ccc(C(=O)O)c(O)c2)cc1` was run?
Answer: The Potency was active: 3.16 µM.

Question: Which Potency does the source give for `COc1ccccc1C(=O)NCCCn1cc(Br)c(C)n1` here?
Answer: Its Potency is inconclusive: 2.24 µM [inhibitor, single point].

Question: For `NC(=O)c1ccc(SCC(=O)OCC(=O)N2CCN(C(=O)c3ccco3)CC2)c([N+](=O)[O-])c1`, which Potency is on record?
Answer: The Potency was inconclusive: 22.4 µM [inhibitor, single point].

Question: Which Potency does the source give for `COc1ccccc1Nc1nnc(SCc2cc(=O)n3cc(C)ccc3n2)s1` here?
Answer: Its Potency is “inactive”.

Question: How did the Potency turn out when `O=C(CN1CCCc2ccccc21)Nc1ccc(F)cc1[N+](=O)[O-]` was run?
Answer: The Potency was inconclusive: 1.58 µM [inhibitor, partial curve].

Question: For `C#CCOCCOCCOCCNc1nc(N2CCN(C(=O)C(Cc3cc4ccccc4[nH]3)n3cc(C(N)C(C)CC)nn3)CC2)nc(N2CCN(C(=O)C(Cc3cc4ccccc4[nH]3)n3cc(C(N)C(C)CC)nn3)CC2)n1` (configuration not stated), which Potency is on record?
Answer: Its Potency is inconclusive: 12.6 µM [inhibitor, partial curve, poor fit].

Question: For `O=C(Nc1ccc(CN2CCOCC2)cc1)c1ccc(-c2cccc(Cl)c2)o1`, which Potency is on record?
Answer: Its Potency is inconclusive: 28.2 µM [inhibitor, partial curve].

Question: With `COc1ccc(Nc2ccccc2N)cc1` as the compound, how does the Potency read?
Answer: The Potency was “inactive”.

Question: How did the Potency turn out when `O=C1COc2ccc(C(=O)COC(=O)/C=C/c3ccco3)cc2N1` was run?
Answer: The Potency was inconclusive: 35.5 µM [inhibitor, single point].

Question: With `CCOc1cc(CNCCc2c[nH]c3ccccc23)cc(Cl)c1OCC(N)=O` as the compound, how does the Potency read?
Answer: The Potency was inconclusive: 35.5 µM [inhibitor, partial curve].

Question: With `Cc1nc(NC(=O)C(Cl)Cl)sc1C(=O)N(C)C` as the compound, how does the Potency read?
Answer: The Potency was inconclusive: 22.4 µM [inhibitor, single point].

Question: Which Potency does the source give for `O=C(Cc1cn2ccsc2n1)NCc1ccccc1` here?
Answer: Its Potency is inconclusive: 31.6 µM [inhibitor, partial curve].

Question: Which Potency does the source give for `COc1ccc(CN=C2NN=C(c3ccc(Cl)cc3)CS2)cc1` here?
Answer: The Potency was inconclusive: 28.2 µM [inhibitor, single point].

Question: For `CCOc1ccc(C(c2c(NC(=O)c3ccccc3)sc(C)c2C)N2CCN(CCO)CC2)cc1` (configuration not stated), which Potency is on record?
Answer: The Potency was inconclusive: 15.8 µM [inhibitor, partial curve].

Question: Which Potency does the source give for `Cc1cc(C)n2nc(C(=O)Nc3ccc4c(c3)OCO4)nc2n1` here?
Answer: Its Potency is inconclusive: 39.8 µM [inhibitor, single point].

Question: How did the Potency turn out when `O=C(N1CCCC1)C12CC3CC(CC(C3)C1)C2` was run?
Answer: The Potency was inconclusive: 39.8 µM [inhibitor, single point].

Question: With `COc1ccc(CCn2c(=O)c3cccnc3n(Cc3cccc([N+](=O)[O-])c3)c2=O)cc1OC` as the compound, how does the Potency read?
Answer: The Potency was inconclusive: 1.12 µM [inhibitor, full curve].

Question: For `Cc1ccc(NC(=O)N/C=C/c2ccco2)cc1`, which Potency is on record?
Answer: Its Potency is inconclusive: 28.2 µM [inhibitor, single point].

Question: Which Potency does the source give for `FC(F)(F)c1ccc(Cl)c(-n2c(Cc3cccs3)n[nH]c2=S)c1` here?
Answer: Its Potency is “inactive”.

Question: How did the Potency turn out when `O=C(CSc1ccc(F)cc1)NCC1(N2CCOCC2)CCCCC1` was run?
Answer: The Potency was “inactive”.

Question: For `O=C(NCCCn1ccnc1)C(=O)NCC1OCCN1S(=O)(=O)c1ccc(Cl)cc1` (configuration not stated), which Potency is on record?
Answer: Its Potency is inconclusive: 20 µM [inhibitor, single point].

Question: `CCOc1ccc(NC(=O)c2c3c(nc4ccccc24)CCC3)cc1` was tested. Which Potency did it give?
Answer: The Potency was inconclusive: 1.58 µM [inhibitor, partial curve, poor fit].

Question: With `CCNC(=S)N(Cc1cc2cc(C)ccc2[nH]c1=O)C1CCCC1` as the compound, how does the Potency read?
Answer: The Potency was “inactive”.

Question: How did the Potency turn out when `c1ccc(COc2ccc(OCCCCN3CCCC3)cc2)cc1` was run?
Answer: Its Potency is inconclusive: 35.5 µM [inhibitor, partial curve].

Question: With `COC(=O)c1ccc(NC(=O)c2ccccc2N(C)S(C)(=O)=O)cc1` as the compound, how does the Potency read?
Answer: The Potency was inconclusive: 6.31 µM [inhibitor, single point].

Question: For `COc1ccc(OC)c(NC(=O)Cc2cccs2)c1`, which Potency is on record?
Answer: The Potency was inconclusive: 39.8 µM [inhibitor, single point].

Question: With `O=[N+]([O-])c1cccc(-c2nc3ccc([N+](=O)[O-])cc3[nH]2)c1` as the compound, how does the Potency read?
Answer: Its Potency is inconclusive: 8.91 µM [inhibitor, single point].

Question: With `Cc1c(NC(=O)C(C)OC(=O)c2cccs2)c(=O)n(-c2ccccc2)n1C` (configuration not stated) as the compound, how does the Potency read?
Answer: Its Potency is inconclusive: 0.708 µM [inhibitor, single point].

Question: With `CCOC(=O)c1cc(C)n(CCc2ccccc2)c1C` as the compound, how does the Potency read?
Answer: Its Potency is “inactive”.

Question: `O=C(COC(=O)C1CCC1)Nc1ncc(Cl)cc1Cl` was tested. Which Potency did it give?
Answer: The Potency was inconclusive: 20 µM [inhibitor, partial curve].

Question: With `CSc1nc(C)cc(OCCNS(=O)(=O)c2cc(C)ccc2C)n1` as the compound, how does the Potency read?
Answer: Its Potency is inconclusive: 25.1 µM [inhibitor, partial curve].

Question: How did the Potency turn out when `CCOC(=O)c1c(C)[nH]c(C(=O)COc2ccc3ccc(=O)oc3c2)c1C` was run?
Answer: Its Potency is inconclusive: 8.91 µM [inhibitor, single point].

Question: `Cc1cc(=O)oc(C)c1C(=O)NCc1ccccn1` was tested. Which Potency did it give?
Answer: The Potency was inconclusive: 35.5 µM [inhibitor, single point].

From PubChem BioAssay AID485360 (National Center for Advancing Translational Sciences (NCATS), 2010)
